# Experimental data from PubChem BioAssay AID1345083 (National Center for Advancing Translational Sciences (NCATS), 2018).
# Among all 94,000 compounds or so, about 6,200 (6.6%) were called active. The shares of active, inactive and inconclusive entries below differ from those in the screen. Calls come from the whole dose curve; as a rule, active = well fitted inhibition curve with a large enough effect; inconclusive = small, poorly fitted or top-dose-only effect; inactive = flat fitted curve, though single readings scatter. A potency beside an inconclusive call is a rough fit, not a confirmed value.
# Assay: Cytotoxic Profiling in HEK 293 Cell Line of Diverse Libraries Using Quantitative High-Throughput Screening; note: nearly all actives have a fitted effect of over 60% in size
# Details: HEK 293 viability, ATP luminescence (CellTiter-Glo), 48-72 h; activity change, negative = cytotoxicity: at 115 µM (top of the series) unless noted; series mostly up to 115 µM
# How it was run: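 Cells seeded first (HEK 293, 250 cells/well), then compound added by pintool. Incubation ran 48 or 72 hr at 37 degree Celsius. CellTiter-Glo was added and luminescence imaged after 10 min at room temperature.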
# % is set by controls: 0 for no effect and ±100 for the full control effect; potency is the fitted concentration of half-maximal effect; tags give direction and shape of the fitted curve.
SMILES,Potency,outcome,"activity change, negative = cytotoxicity"
COc1cc(Cl)cc(CN2CCC3(CCCNC3)C2)c1OC (centres undefined),"inconclusive: 50.1 µM [inhibitor, partial curve, poor fit]",,
O=C(Nc1ccc(Cl)cc1)N1CCCC(c2nn(-c3ccc(Cl)cc3)c(=O)[nH]2)C1 (centres undefined),"inconclusive: 89.1 µM [inhibitor, single point]",,
C[S+](=O)([O-])Nc1cccc(Nc2cnc3ccc(-c4ccc(F)cc4)nn23)c1,active: 79.4 µM,,
O=C(NC[C@H]1OC[C@@H](NC2CCCC2)[C@@H]1O)Nc1ccccc1,,inactive [at 172 µM],
CN(CC1CCOC1)C(=O)Nc1ccc(Cl)cc1F (centres undefined),,,inactive: 1.85%
CN(C(=O)CN1CCOCC1)C1CCc2nn(C)c(=O)n2CC1 (centres undefined),"inconclusive: 39.8 µM [inhibitor, single point]",,
COCC[C@]1(O)CCN(C(=O)c2ccc(C#N)nc2)C[C@H]1C,,,inactive: 1.58%
O=C1CCN(Cc2ccncc2)CCCC(C(=O)Nc2cccnc2)CCN1 (centres undefined),,inactive,
CCC(C)NC(=O)CC1=CSC2=NC(C)=C(C(=O)OC)C(c3cccc([N+](=O)[O-])c3)N12 (centres undefined),"inconclusive: 50.1 µM [inhibitor, partial curve, poor fit]",,
Cc1ccc(C(=O)NC2CCN(C(=O)c3ccc(-c4ncccc4C#N)cc3)CC2)cc1,"inconclusive: 79.4 µM [inhibitor, partial curve, poor fit]",,
COc1ccc(N2CC(c3noc(-c4cc(OC)c(OC)c(OC)c4)n3)CC2=O)cc1 (centres undefined),"inconclusive: 89.1 µM [inhibitor, partial curve, poor fit]",,
O=C(NCc1ccc(Cl)cc1)C1Cn2cccc2C(=O)N1Cc1cccnc1 (centres undefined),,,inactive: 0.902%
COc1ccc(CNC[C@H]2O[C@H](Cc3cc(-c4ccc(OC)cc4)on3)CC[C@@H]2O)cc1,active: 35.5 µM,,
CN(C)C(=O)N1CCN(C2CCNCC2)C(=O)C1,,inactive [at 172 µM],
Cn1ccc(C(=O)N2CCC3(CC2)OC(=O)N(Cc2ccccc2C#N)C3(C)c2ccccc2)n1 (centres undefined),,,inactive: -10.7%
CC1=C[C@@H](CN(C)Cc2cccnc2)[C@H](C(C)C)C[C@H]1Cc1nnc(-c2ccc([N+](=O)[O-])cc2)o1,active: 22.4 µM,,
Cn1ncc2c(C(=O)NCc3cccnc3)cc(-c3cccc(F)c3)nc21,active: 79.4 µM,,
COCCN1CCN(C[C@@H]2C=C(C)[C@H](Cc3nnc(C)o3)C[C@H]2C(C)C)CC1,active: 89.1 µM,,
CCOc1ccc(C(=O)Nc2ccc3ncnc(N4CCCCC4)c3c2)cc1,"inconclusive: 50.1 µM [inhibitor, partial curve, poor fit]",,
CNC(=O)N1CCC(C2CCN(C(=O)Cc3c(F)cccc3Cl)C2)CC1 (centres undefined),"inconclusive: 35.5 µM [inhibitor, partial curve, poor fit]",,
O=C(c1ccco1)N1CCC(n2cc(-c3nc(-c4ccccc4)no3)nn2)C1 (centres undefined),"inconclusive: 44.7 µM [inhibitor, partial curve, poor fit]",,
CSc1ccc(-c2cccc(C(=O)NCCNC(=O)c3ccccc3C)c2)cc1,active: 25.1 µM,,

SMILES,Potency,outcome,"activity change, negative = cytotoxicity"
CC(C)(Oc1ccc2c(c1)CCC2)C(=O)N[C@H]1CCOC[C@H]1C1CCOCC1,,,inactive: -0.446%
Cc1cccc(-n2nc(C)c(CCC(=O)NC3CC3)c2Oc2ccc(F)cc2F)c1,"inconclusive: 89.1 µM [inhibitor, partial curve, poor fit]",,
Cc1ccc(-c2ccccc2CN2CCN([S+](C)(=O)[O-])CC2)cc1Cl,"inconclusive: 35.5 µM [inhibitor, partial curve, poor fit]",,
Cc1ccc(CN2CCc3nc(C(=O)Nc4cccnc4)oc3CC2)cc1,"inconclusive: 63.1 µM [inhibitor, partial curve, poor fit]",,
COC(=O)N1CCC(C(=O)N2CCCC2c2nc3ccncc3[nH]2)CC1 (centres undefined),,,inactive: -3.29%
CCCCNC(=O)CCN(CCCOC)C(=O)c1ccoc1,,,inactive: -3%
CCNC(=O)Cc1c[nH]c2ncc(-c3ccccc3C)cc12,"inconclusive: 89.1 µM [inhibitor, partial curve, poor fit]",,
O=C(NCc1nnc2c(-c3nc(C4CC4)no3)cccn12)c1cc(F)ccc1Cl,"inconclusive: 89.1 µM [inhibitor, single point]",,
O=C(COc1ccccc1)NC1CCCN(c2cc(-c3ccc(F)cc3)[nH]n2)C1 (centres undefined),"inconclusive: 50.1 µM [inhibitor, partial curve, poor fit]",,
Cc1c(-c2ccc(F)cc2)[nH]c2ccc(CNC(=O)CCN3CCCO3)cc12,active: 31.6 µM,,
c1cc(CN2CCc3c(sc4ncnc(N5CCOCC5)c34)C2)ccn1,"inconclusive: 89.1 µM [inhibitor, single point]",,
CNC(=O)c1cc(C)nc2onc(C3CCCN(C(=O)N(C)C)C3)c12 (centres undefined),,,inactive: -5.7%
Cc1ccc(C(=O)N2CCC3(CCCN(Cc4cccc(F)c4F)C3)C2)s1 (centres undefined),"inconclusive: 31.6 µM [inhibitor, partial curve, poor fit]",,
N#Cc1cccc(CN2Cc3[nH]cnc3C[C@H]2c2nc(-c3ccc(OC(F)(F)F)cc3)no2)c1,"inconclusive: 44.7 µM [inhibitor, partial curve, poor fit]",,
COc1ccc(OC)c(NC(=O)c2cc(-c3ccc[nH]3)n[nH]2)c1,active: 39.8 µM,,
CCNC(=O)c1cccnc1OC1CCN(C(=O)c2cc(C)ccc2C)C1 (centres undefined),,,inactive: -4.55%
COc1ccc(NC(=O)N2Cc3[nH]cnc3C[C@H]2c2nc(-c3ccc(OC)cc3)no2)cc1,,,inactive: -8.92%
COCCOc1ccc2c(n1)CCN(C(=O)COc1ccccc1)C2,,,inactive: -15.5%
Cc1ccc([S+](=O)([O-])c2nnn3c2nc(NCc2ccncc2)c2ccccc23)cc1,,,inactive: -9.92%
O=C(NCC1CCCN(S(=O)(=O)c2ccc3c(c2)OCCO3)C1)c1cccs1 (centres undefined),"inconclusive: 63.1 µM [inhibitor, partial curve, poor fit]",,
CCCc1ccc(S(=O)(=O)N2CCC(c3c[nH]c4c(C)cccc34)CC2)cc1,active: 50.1 µM,,
Cc1ccccc1OCC(=O)N1CCc2nc3cc[nH]n3c(=O)c2C1,"inconclusive: 89.1 µM [inhibitor, single point]",,
